Several values for one entry are separate records, joined by “and”; a condition that tells them apart may be missing. Equal values may be shown once. The list shows a part of the results. The main result of the screen is listed elsewhere. These columns were measured beside it and carry no call. Most of these compounds were active or inconclusive in the main read-out, so they are no random draw. The note in brackets gives the kind of curve behind each potency; many fits are weak.
Assay: qHTS Assay for Lipid Storage Modulators (AID 1519)
Conditions: Drosophila S3 cells, BODIPY lipid droplet/cell ratio, laser cytometry, cells loaded with oleic acid
Summary of the method: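 Cells seeded at 5,000 per well were treated with compounds over a concentration series and loaded with oleic acid (400 uM, as added). Lipid droplet fluorescence (488 nm excitation, 500-530 nm channel) was read by laser-scanning cytometry and normalized to 20 uM Triacsin C.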

[1] = measured here: cell count channel max response
[2] = measured here: cell number channel AC50
[3] = measured here: lipid (BODIPY) channel AC50
[4] = measured here: lipid channel max response
Tags tell the direction and shape of the fitted curve.

COc1ccc2c(=O)c(-c3ccccc3)coc2c1
max response [1]: 94.1% | AC50 [2]: 6.31 µM [rising, partial curve] | AC50 [3]: 7.94 µM [rising, partial curve] | max response [4]: 123%

CN(C)c1ccc(-c2nccc(Nc3ccc(F)cc3)n2)cc1
max response [1]: -5.33% | AC50 [2]: 1.41 µM [rising, full curve] | AC50 [3]: 1.26 µM [rising, full curve] | max response [4]: -1.51%

O=C(c1ccncc1)N1CCC[C@@]2(CCN(Cc3ccccc3)C2)C1
max response [1]: 30.2% | AC50 [2]: 15.8 µM [rising, partial curve, poor fit] | AC50 [3]: 0.0316 µM [rising, full curve, poor fit] | max response [4]: 30.5%

CN(C)C(=O)c1ccc(-c2ccc3ncnc(Nc4ccccc4)c3c2)cc1
max response [1]: 14.1% | AC50 [2]: 1.78 µM [rising, partial curve, poor fit] | AC50 [3]: 1.78 µM [rising, full curve, poor fit] | max response [4]: 19.4%

Cc1cnc(CNc2ncncc2-c2ccccc2Cl)cn1
max response [1]: 31.9% | AC50 [2]: 8.91 µM [rising, partial curve, poor fit] | AC50 [3]: 5.62 µM [rising, partial curve] | max response [4]: 34.6%

COc1ccccc1CCn1c(=O)c(-c2ccc(Cl)cc2)nc2cncnc21
max response [1]: 23.1% | AC50 [2]: 1.58 µM [rising, full curve] | AC50 [3]: 1.58 µM [rising, full curve, poor fit] | max response [4]: 33.2%

c1ccc(-c2csc(-c3nc4ccccc4[nH]3)n2)cc1
max response [1]: 15.4% | AC50 [2]: 0.251 µM [rising, full curve] | AC50 [3]: 0.178 µM [rising, full curve] | max response [4]: 15.6%

COc1cccc(Cn2c(=O)c(-c3cn(C)c4ccccc34)nc3cnc(OC)nc32)c1
max response [1]: 32.6% | AC50 [2]: 8.91 µM [rising, partial curve, poor fit] | AC50 [3]: 5.62 µM [rising, partial curve, poor fit] | max response [4]: 42.3%

Cc1ccccc1-c1nc(Nc2ccncc2)c2ccccc2n1
max response [1]: 4.67% | AC50 [2]: 0.794 µM [rising, partial curve] | AC50 [3]: 0.447 µM [rising, partial curve] | max response [4]: 4.3%

COc1ccc2[nH]cc(CCNc3ccnc(-c4ccoc4)n3)c2c1
max response [1]: 19.2% | AC50 [2]: 1 µM [rising, full curve] | AC50 [3]: 1 µM [rising, full curve] | max response [4]: 24.6%

Cn1c(=O)c(-c2cc(F)cc(F)c2)nc2cncnc21
max response [1]: 32.2% | AC50 [2]: 4.47 µM [rising, full curve, poor fit] | AC50 [3]: 3.16 µM [rising, full curve] | max response [4]: 38.5%

COc1cccc2c1C(=O)CC(c1ccccc1)O2 (stereo unspecified)
max response [1]: 114% | AC50 [2]: 14.1 µM [rising, partial curve, poor fit] | AC50 [3]: 14.1 µM [rising, partial curve, poor fit] | max response [4]: 149%

COc1ccc(-n2c(=O)c(-c3cccs3)nc3cnc(N4CCN(C)CC4)nc32)cc1
max response [1]: 20.7% | AC50 [2]: 3.55 µM [rising, full curve, poor fit] | AC50 [3]: 3.16 µM [rising, single point] | max response [4]: 17.9%

COc1ccccc1-c1cncnc1NCc1ccccc1
max response [1]: 34.5% | AC50 [2]: 5.62 µM [rising, full curve, poor fit] | AC50 [3]: 5.01 µM [rising, full curve, poor fit] | max response [4]: 40.1%

COc1cc(/C=C/C(=O)N2CCC=CC2=O)cc(OC)c1OC
max response [1]: -31.6% | AC50 [2]: 22.4 µM [falling, partial curve, poor fit] | AC50 [3]: 17.8 µM [falling, partial curve] | max response [4]: -82.6%

COc1cc(=O)n(C)c2c(OCC(O)C(C)(C)O)cccc12 (stereo unspecified)
max response [1]: 63.6% and 78.6% | AC50 [2]: 15.8 µM [rising, partial curve, poor fit] | AC50 [3]: 28.2 µM [rising, partial curve, poor fit] | max response [4]: 80.5% and 81.4%

O=C(O)CC[C@@H](C(=O)O)N1C(=O)c2ccccc2C1=O
max response [1]: 9.95% | AC50 [2]: 7.08 µM [falling, single point] | AC50 [3]: 6.31 µM [falling, single point] | max response [4]: 8.36%

CC(=O)NCCNc1ncnc2ccc(-c3ccccc3C#N)cc12
max response [1]: 26% | AC50 [2]: 1.12 µM [rising, full curve, poor fit] | AC50 [3]: 1.12 µM [rising, full curve] | max response [4]: 32.2%

COc1ccc2[nH]cc(CCNc3nc(-c4ccccc4OC)nc4ccccc34)c2c1
max response [1]: 2.7% | AC50 [2]: 0.126 µM [rising, full curve, poor fit] | AC50 [3]: 0.126 µM [rising, full curve, poor fit] | max response [4]: 1.95%

CC(=O)Oc1ccc(/C=C/C(=O)CC2OC(Oc3cc(OC(C)=O)c4c(c3)O[C@@H](c3ccc(OC(C)=O)cc3)CC4=O)C(OC(C)=O)C(OC(C)=O)C2OC(C)=O)cc1 (stereo partly specified)
max response [1]: 68.9% | AC50 [2]: 3.98 µM [rising, full curve] | AC50 [3]: 4.47 µM [rising, partial curve] | max response [4]: 110%

COc1ccc(-c2nc3cnc(N(C)C)nc3n(C)c2=O)cc1
max response [1]: 21.3% | AC50 [2]: 3.16 µM [rising, full curve, poor fit] | AC50 [3]: 2.82 µM [rising, full curve, poor fit] | max response [4]: 28.6%

CN(C)c1ncnc2ccc(-c3cccc(NS(C)(=O)=O)c3)cc12
max response [1]: 20.1% | AC50 [2]: 6.31 µM [rising, single point] | AC50 [3]: 7.08 µM [rising, single point] | max response [4]: 19.8%

COc1ccccc1CNc1ccnc(-c2ccc(C(=O)N(C)C)cc2)n1
max response [1]: 25.2% | AC50 [2]: 0.562 µM [rising, full curve] | AC50 [3]: 0.562 µM [rising, full curve] | max response [4]: 30.6%

C[C@H]1[C@H](C)CC[C@]2(C(=O)O)CC[C@]3(C)C(=CCC4[C@@]5(C)CC[C@H](O)C(C)(C)[C@@H]5CC[C@]43C)[C@H]12 (stereo partly specified)
max response [1]: 81.4% | AC50 [2]: 35.5 µM [rising, partial curve, poor fit] | AC50 [3]: 39.8 µM [rising, single point] | max response [4]: 81.3%

COc1ccccc1-c1cncnc1N(C)Cc1ccco1
max response [1]: 33.8% | AC50 [2]: 8.91 µM [rising, partial curve] | AC50 [3]: 6.31 µM [rising, partial curve] | max response [4]: 36.9%

COc1cc2c(cc1OC)C(c1ccccc1)CN(C)CC2 (stereo unspecified)
max response [1]: 49.8% | AC50 [2]: 39.8 µM [rising, single point] | AC50 [3]: 39.8 µM [rising, single point] | max response [4]: 49.6%

Cc1noc(C)c1-c1nc(NCCN2CCOCC2)c2ccccc2n1
max response [1]: 31.8% | AC50 [2]: 1 µM [rising, full curve] | AC50 [3]: 1 µM [rising, full curve] | max response [4]: 37.2%

O=c1c(-c2cc(F)cc(F)c2)nc2cncnc2n1Cc1ccccc1Cl
max response [1]: 31.6% | AC50 [2]: 2 µM [rising, full curve, poor fit] | AC50 [3]: 1.12 µM [rising, full curve, poor fit] | max response [4]: 35.8%

COc1cccc(Cn2c(=O)c(-c3ccc(F)cc3)nc3cnc(N4CCOCC4)nc32)c1
max response [1]: 18.5% | AC50 [2]: 0.794 µM [rising, full curve, poor fit] | AC50 [3]: 0.631 µM [rising, full curve, poor fit] | max response [4]: 27%

CC1(COc2ccc(C[C@H]3SC(=O)NC3=O)cc2)CCCCC1
max response [1]: 44.4% | AC50 [2]: 1.41 µM [rising, full curve, poor fit] | AC50 [3]: 1.41 µM [rising, full curve, poor fit] | max response [4]: 46.1%

CN(C)C(=O)c1ccc(-c2ccc3ncnc(NC4CC4)c3c2)cc1
max response [1]: 17.4% | AC50 [2]: 0.0891 µM [rising, full curve] | AC50 [3]: 0.1 µM [rising, full curve] | max response [4]: 18.1%

C[C@@]12C(=O)OC(=O)[C@@]1(C)[C@@H]1CC[C@@H]2O1
max response [1]: 66.1% | AC50 [2]: 7.08 µM [rising, full curve, poor fit] | AC50 [3]: 8.91 µM [rising, partial curve, poor fit] | max response [4]: 92.3%

COc1ccc(C2OCC3(COC(C)=O)C(C)C=C(C)C2C3C)cc1 (stereo unspecified)
max response [1]: 56% | AC50 [2]: 35.5 µM [rising, single point] | AC50 [3]: 35.5 µM [rising, partial curve, poor fit] | max response [4]: 68.4%

COc1ccc(Cl)cc1N=Nc1ncc[nH]1
max response [1]: 113% | AC50 [2]: 1 µM [rising, full curve] | AC50 [3]: 1.12 µM [rising, full curve] | max response [4]: 148%

COc1cccc(-c2nc(N3CCN(C)CC3)c3ccccc3n2)c1
max response [1]: 31.9% | AC50 [2]: 11.2 µM [rising, partial curve, poor fit] | AC50 [3]: 10 µM [rising, partial curve, poor fit] | max response [4]: 38.1%

Cc1noc(C)c1-c1nccc(NCc2ccccc2)n1
max response [1]: 42.5% | AC50 [2]: 5.01 µM [rising, full curve, poor fit] | AC50 [3]: 3.55 µM [rising, full curve, poor fit] | max response [4]: 47.8%

Cc1cccc(-c2cc(=O)c3cc(Br)ccc3o2)c1
max response [1]: 114% | AC50 [2]: 2.24 µM [rising, full curve] | AC50 [3]: 2.24 µM [rising, full curve] | max response [4]: 147%

CN(Cc1ccco1)c1ccnc(-c2ccccc2C(F)(F)F)n1
max response [1]: 36.3% | AC50 [2]: 11.2 µM [rising, partial curve] | AC50 [3]: 8.91 µM [rising, partial curve, poor fit] | max response [4]: 42.2%

CNc1cc(OC)c(C(=O)N[C@@H]2CCN(Cc3ccccc3)[C@H]2C)cc1Cl
max response [1]: 108% | AC50 [2]: 7.08 µM [rising, full curve] | AC50 [3]: 7.94 µM [rising, full curve] | max response [4]: 138%

— PubChem BioAssay (NCATS)
